Source: PubChem BioAssay AID1159614 (National Center for Advancing Translational Sciences (NCATS), 2016)
The whole screen tested about 45,000 compounds, of which about 65 (0.1%) were called active. The call rests on the fitted dose curve; in most records, active means well fitted activation curve with a large enough effect; inconclusive means small, poorly fitted or top-dose-only effect; inactive means no such curve, though single readings can be large or run the other way. The list shows a part of the results.

These compounds were tested against Galactocerebrosidase (Homo sapiens) (UniProt P54803) (assay: A Novel Cell-Based Assay to Identify Small Molecules for B -Galactocerebrosidase). Settings: 145M-Twi-hGALC-G270D cells (Twitcher mouse brain line with human GALC G270D), HMU-beta-Gal fluorescence, 48 h; series mostly up to 57.5 µM; activation: at the top concentration.
Summary of the method: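 Mutant human GALC (G270D), stably expressed in a Twitcher mouse brain cell line lacking endogenous GALC, is measured in live-treated cells via 6-hexadecanoylamino-4-methylumbelliferyl-β-galactoside hydrolysis (0.1 mM final, pH 5.2) with fluorescent detection.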
Further: 0% is about no effect; nearly all actives have a fitted effect of over 65% in size.

UniProt P54803, sequence (P54803 whole entry, looked up): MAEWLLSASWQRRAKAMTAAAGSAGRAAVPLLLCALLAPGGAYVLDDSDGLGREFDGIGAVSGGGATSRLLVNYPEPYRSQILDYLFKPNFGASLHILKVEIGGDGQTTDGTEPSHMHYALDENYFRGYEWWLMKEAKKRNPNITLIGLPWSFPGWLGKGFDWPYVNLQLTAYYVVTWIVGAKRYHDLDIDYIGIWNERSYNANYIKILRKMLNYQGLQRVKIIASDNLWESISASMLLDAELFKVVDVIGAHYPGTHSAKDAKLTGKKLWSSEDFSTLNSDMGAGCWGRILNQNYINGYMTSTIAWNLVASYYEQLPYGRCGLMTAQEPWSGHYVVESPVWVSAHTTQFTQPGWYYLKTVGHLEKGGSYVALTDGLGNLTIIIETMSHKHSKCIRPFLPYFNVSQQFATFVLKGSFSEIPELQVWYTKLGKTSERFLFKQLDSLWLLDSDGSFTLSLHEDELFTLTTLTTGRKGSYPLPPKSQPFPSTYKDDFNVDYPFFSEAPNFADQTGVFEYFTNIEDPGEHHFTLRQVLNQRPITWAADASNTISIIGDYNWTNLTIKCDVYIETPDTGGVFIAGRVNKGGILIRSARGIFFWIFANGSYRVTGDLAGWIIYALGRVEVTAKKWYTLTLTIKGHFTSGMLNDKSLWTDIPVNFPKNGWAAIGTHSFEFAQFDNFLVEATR

| SMILES | activation |
| --- | --- |
| Nc1c(C(=O)NCc2ccc(Cl)cc2Cl)nnn1Cc1ccc(Br)cc1 | inactive: 0.508% |
| Cc1ccc(Nc2nnc(-c3ccc(C)c(S(=O)(=O)N4CCN(C)CC4)c3)c3ccccc23)cc1 | inactive: 1.39% |
| CCC1CN(C(=O)N2CCC(C(=O)NCCc3ccccc3Cl)CC2)c2cc(C)ccc2O1 (centres undefined) | inactive: 12.2% |
| COc1cc(NC(=O)CN2c3ccccc3S(=O)(=O)c3ccccc32)cc(OC)c1 | inactive: -6.03% |
| CCCC(O)c1nc2ccccc2n1Cc1ccccc1OC (centres undefined) | inactive: -36.4% |
| Cc1cccc(C(C)C)c1NC(=O)C1CCCN1S(=O)(=O)c1cccc2nsnc12 (centres undefined) | inactive: -11.1% |
| Cc1ccc(C(=O)CSc2nc(-c3ccccc3)nc3c2CCCC3)c(C)c1 | inactive: 8.67% |
| CCOCCCn1c(SCC(=O)OCC)nc2c(sc3ccccc32)c1=O | inactive: 2.28% |
| COCCNC(=O)CSc1nc(-c2cc(OC)c(OC)c(OC)c2)[nH]c1-c1ccc(Cl)cc1 | inactive: -4.74% |
| COc1ccc(CCNC(=O)C2CCC(CNS(=O)(=O)c3ccc(C)cc3)CC2)cc1OC (centres undefined) | inactive: -2.15% |
| O=S(=O)(c1ccccc1)c1nnn2c1nc(NC1CCCCC1)c1sccc12 | inactive: -11.9% |
| CNC(=O)C1CCC(Cn2c(=O)c3sccc3n(CC(=O)Nc3ccc(C)c(C)c3)c2=O)CC1 (centres undefined) | inactive: -6.3% |
| Cc1ccc(CN(C(=O)c2ccccc2)c2ccccn2)o1 | inactive: -1.69% |
| O=C(O)CCCCn1c(SCC(=O)Nc2ccccc2C(F)(F)F)nc2ccsc2c1=O | inactive: -3.42% |
| CCc1ccc(NC(=O)CN(c2ccc(C)cc2)S(=O)(=O)c2cccs2)cc1 | inactive: -4.94% |
| COc1ccc(-c2cc(C)no2)cc1S(=O)(=O)N1CCc2ccccc21 | inactive: -13.7% |
| Cc1ccc(Cl)cc1NC(=O)Nc1nnc(N(C)Cc2ccccc2)s1 | inactive: -18.4% |
| Cn1c(=O)c2c(SCC(=O)Nc3ccccc3C(F)(F)F)nc(C3CCCC3)nc2n(C)c1=O | inactive: -3.15% |
| CCc1ccc(NC(=O)C(=O)NCC(c2cccnc2)N2CCN(c3ccc(F)cc3)CC2)cc1 (centres undefined) | inactive: -15.5% |
| CC(=O)c1cccc(NC(=O)c2nc(-c3ccccc3)n(-c3cccc(Cl)c3)n2)c1 | inactive: -31.6% |
| Cc1ccc(NC(=O)CSc2nc(=O)n(CCN3CCOCC3)c3c2CCC3)c(C)c1 | inactive: -16.4% |
| Cc1ccc(NC(=O)c2nc(S(C)(=O)=O)ncc2N(Cc2ccco2)Cc2cccs2)c(C)c1 | inactive: 3.65% |
| Cc1ccc(OCC(=O)Nc2nnc(S(=O)(=O)N3c4ccccc4CC3C)s2)cc1 (centres undefined) | inactive: -14.7% |
| Cc1ccc(C(=O)Nc2ccc(S(=O)(=O)N3CCC(c4nc5ccccc5s4)CC3)cc2)cc1 | inactive: -21.2% |

| SMILES | activation |
| --- | --- |
| CC(=O)N1CCc2nc3sc(C(=O)c4ccc(F)cc4)c(N)c3c(C(F)(F)F)c2C1 | inactive: -13.4% |
| Cc1nnc(N2CCC(C(=O)N3CCCCC3)CC2)c2nn(-c3ccc(Cl)cc3)c(C)c12 | inactive: -10.7% |
| Cc1ccc(OCCCCn2nnc3sc4c(c3c2=O)CCCC4)cc1 | inactive: -8.66% |
| CCOc1ccccc1Nc1sc(C(=O)c2ccccc2)c(N)c1C(=O)Nc1ccccc1 | inactive: -13.4% |
| CCc1ccc(NC(=O)Cn2c(=O)n(CCCCC(=O)NCc3ccc4c(c3)OCO4)c(=O)c3ccccc32)cc1 | inactive: -11.8% |
| CC(=O)c1cc(-c2ccccc2)n(CCC(=O)NCc2ccc(C)cc2)c1C | inactive: -15.5% |
| CC(C)(C)c1ccc(C(=O)Nc2ccc3c(c2)CCCN3C(=O)c2cccs2)cc1 | inactive: -14.6% |
| CCOc1ccccc1NC(=O)c1ccc2c(Cl)c3c(nc2c1)CCC3 | inactive: -8.48% |
| COc1ccc(-c2nn3c(=O)cc(CN4CCN(C(=O)c5ccc(OC)c(OC)c5)CC4)nc3s2)cc1 | inactive: 3.39% |
| CCOc1ccccc1CNc1ccc2cc(S(=O)(=O)N3CCC(C)CC3)ccc2n1 | inactive: -6.21% |
| COc1ccc(-c2noc(N(c3nc(-c4ccc(OC)c(OC)c4)no3)c3ccccc3OC)n2)cc1OC | inactive: -0.735% |
| Cc1ccc(CNC(=O)C2CCN(S(=O)(=O)c3ccc4[nH]c(=O)ccc4c3)CC2)cc1 | inactive: 6.13% |
| Cc1nc2nc[nH]n2c(=O)c1CCC(=O)Nc1ccc(F)cc1 | inactive: 2.78% |
| CCC(C)NC(=O)CSc1nc2cc3c(cc2c(=O)n1CCCCCC(=O)NCc1ccc2c(c1)OCO2)OCO3 (centres undefined) | inactive: -5.02% |
| Cc1ccccc1S(=O)(=O)Cc1ccc(C(=O)NC2CCC(C)CC2)o1 (centres undefined) | inactive: -9.21% |
| CCOc1ccc(NC(=O)Cn2c(=O)n(-c3ccccc3)c(=O)c3ccc(C(=O)NCc4ccc5c(c4)OCO5)cc32)cc1 | inactive: -24.8% |
| Cc1nn(-c2ccccc2)c2c1N(CC(=O)N1CCN(c3ccc(F)cc3)CC1)C(=O)CS2 | inactive: -19.4% |
| CC1(C)C(=O)N(CC(=O)Nc2cccc(F)c2)c2ccc(S(=O)(=O)N3CCCCC3)cc21 | inactive: -11.4% |
| COc1cccc2cc(C(=O)Nc3ccc(F)c(F)c3)c(=O)oc12 | inactive: -14.4% |
| CCOc1ccc(-n2ccnc2SCC(=O)Nc2nc3ccc(C)cc3s2)cc1 | inactive: -6.18% |
| Cc1cc(-c2ccc(C)c(S(=O)(=O)NC3CCCCC3)c2)on1 | inactive: -3.42% |
| Nc1ncnc(Nc2ccccc2)n1 | inactive: -8.78% |
| Cc1ccc(Cl)cc1-n1c(=O)c2sc3ccccc3c2n(Cc2ccccc2)c1=O | inactive: -6.57% |
| CCCCCSc1nnc(-c2ccc(Br)cc2)o1 | inactive: -22.5% |

| SMILES | activation |
| --- | --- |
| CCOc1cc(-c2nnc(SCC(=O)NC3CCCC3)nc2-c2ccc(OC)c(OCC)c2)ccc1OC | inactive: -14.7% |
| CC(C)c1ccc(-c2nc(C(N)=O)c3c(n2)n(-c2ccc4c(c2)OCO4)c(=O)n3C)cc1 | inactive: -20.1% |
| CCOc1ccc(NC(=O)Cn2cc(S(=O)(=O)NC)c(S(=O)(=O)NC)c2)cc1 | inactive: -10.3% |
| COc1ccc(NC(=O)C2CCN(S(=O)(=O)c3ccc4[nH]c5c(c4c3)CCCCC5)CC2)cc1 | inactive: -1.5% |
| O=C(Nc1cccc(F)c1)[C@H](CSCc1ccccc1)N1Cc2ccccc2C1=O | inactive: 11.5% |
| O=C(CSc1nccn1C1CCCC1)Nc1ccc(C(F)(F)F)cc1 | inactive: -12% |
| CC(C)CCN1C(=O)c2ccccc2CC1(C)C(=O)NC1CCC(C)CC1 (centres undefined) | inactive: -9.5% |
| CCOC(=O)C1=C(C)NC(=O)NC1c1cn(-c2ccccc2)nc1-c1ccc(OCC)cc1 (centres undefined) | inactive: -21.5% |
| CCCCOc1cccc(C(=O)Nc2cccc(-c3nc4ncccc4o3)c2C)c1 | inactive: -1.23% |
| Cc1ccc(NC(=O)C2CCCN(c3ncnc4onc(-c5ccc(F)cc5)c34)C2)c(Cl)c1 (centres undefined) | inactive: -15.3% |
| CSc1ncc(C(=O)N2CCN(c3cc(C)ccc3C)CC2)c(C)n1 | inactive: 4.58% |
| CCC(C)NC(=O)Cn1ccc2cc(S(=O)(=O)N3CCCCC3)ccc21 (centres undefined) | inactive: -13.2% |
| CCC1CN(C(=O)NCc2ccc(C)cc2)c2ccccc2O1 (centres undefined) | inactive: 8.08% |
| CCOc1ccc(-c2ncnn2-c2sc3c(c2C#N)CCCCC3)cc1 | inactive: -19.1% |
| CC(C)c1ccc(N2C(=O)CS(=O)(=O)C23C(=O)N(Cc2cccc(F)c2)c2ccccc23)cc1 (centres undefined) | inactive: -21.5% |
| Cc1oc(-c2ccc(C(=O)NCc3ccc(Cl)cc3)cc2)nc1CS(=O)(=O)c1ccccc1 | inactive: -2.17% |
| CCn1c(=N)c(C(=O)NCc2ccccc2)cc2c(=O)n3cc(C)ccc3nc21 | inactive: -9.49% |
| CCCCNC(=O)C(Cc1ccccc1)NS(=O)(=O)c1ccc2c(c1)c(=O)n(C)c(=O)n2C (centres undefined) | inactive: 16.6% |
| COc1ccc(Cn2ccc3nc(C)c(C(=O)Nc4cc(C)cc(C)c4)cc3c2=O)cc1 | inactive: -13.8% |
| COc1ccccc1CCNC(=O)c1ccc(-c2nc(CSc3ccc(C)cc3)c(C)o2)cc1 | inactive: -11.1% |
| CSc1ncc(C(=O)Nc2c(C)cccc2C)c(-c2ccccc2)n1 | inactive: -9.33% |
| Cc1nc2ccccc2c(=O)n1-c1ccc(NC(=O)c2cccc([N+](=O)[O-])c2)cc1 | inactive: -18.3% |
| Cc1cc2c(C(C)C)c(O)c(O)c(C=O)c2c(O)c1-c1c(C)cc2c(C(C)C)c(O)c(O)c(C=O)c2c1O | inactive: -15.4% |
| Cc1cc(C)c(OCC(=O)N(Cc2ccco2)Cc2ccco2)c(C)c1 | inactive: -8.92% |

| SMILES | activation |
| --- | --- |
| Cc1ccc(C)c(NC(=O)c2cc(S(=O)(=O)N3CCCc4ccccc43)ccc2F)c1 | inactive: -1.65% |
| COc1ccc(-n2c(=O)c3ccccc3n(CC(=O)Nc3ccccc3OC)c2=O)cc1 | inactive: -9.08% |
| Cc1ccc(SCC(=O)Nc2ccc3oc(-c4ccccc4C)nc3c2)cc1 | inactive: -14.1% |
| COc1cc(OC)cc(C(=O)Nc2cc3c(cc2N2CCCC2)n(C)c(=O)c(=O)n3C)c1 | inactive: -34.9% |
| CCOC(=O)c1c(NC(=O)c2cc3ccccc3c(=O)o2)sc2c1CCC(C)C2 (centres undefined) | inactive: -12.5% |
| C[C@]1(Cn2ccnn2)[C@H](C(=O)O)N2C(=O)C[C@H]2S1(=O)=O | inactive: -16% |
| CSc1ccc(CCNC(=O)CCn2c(=O)c3cccn3c3ccc(F)cc32)cc1 | inactive: -13.3% |
| COc1ccc(NC(=O)CSc2nc(-c3ccc(F)cc3)[nH]c2-c2ccc(C)cc2)cc1OC | inactive: -13.1% |
| COc1ccc(S(=O)(=O)c2c(O)c3ccc(C(=O)NCc4ccc(F)cc4)cc3[nH]c2=O)cc1 | inactive: -19.2% |
| CC(=O)c1ccc(NC(=O)c2cnn(-c3cccc(F)c3)c2-n2cccc2)cc1 | inactive: -8.39% |
| Cc1ccc(CNC(=O)c2cc(C)nc3c2c(C)nn3-c2ccc(C)cc2)cc1 | inactive: -13.2% |
| CCOc1ccc(NC(=O)c2cnc3ccccn3c2=O)cc1 | inactive: -14.3% |
| Cc1ccc2c(CC(=O)Nc3c(C(=O)c4ccc(C)c(F)c4)oc4ccccc34)coc2c1 | inactive: -9.44% |
| CC(CN(C)C)C(C)(O)Cc1ccc(Cl)cc1 (centres undefined) | inactive: -12.6% |
| CCOC(=O)c1cc(S(=O)(=O)NCc2ccc(C)cc2)[nH]n1 | inactive: -19% |
| COc1ccccc1NC(=O)CCCc1nnc2n(C)c(=O)c3sccc3n12 | inactive: -9.51% |
| O=S(=O)(c1ccc(Cl)cc1)c1nc(-c2ccco2)oc1SCc1ccc(F)cc1 | inactive: -10.7% |
| COc1ccc(CCN2C(=O)c3[nH]nc(-c4ccccc4O)c3C2c2ccc(OC)cc2)cc1 (centres undefined) | inactive: -17.5% |
| O=C(Nc1ccc(Oc2ccccc2)cc1)C1CCN(S(=O)(=O)c2ccc(Cl)cc2)CC1 | inactive: -0.056% |
| CCOc1ccc(CCNC(=O)c2ccc3c(c2)c(C)c(C)n3Cc2ccccc2)cc1OCC | inactive: 4.49% |
| COc1ccccc1CNC(=O)CCC1N=C2c3ccccc3N=C(SCc3ccc(C)cc3C)N2C1=O (centres undefined) | inactive: -13.5% |
| Fc1cccc(-n2ncc3c2ncn2nc(Cc4ccccc4)nc32)c1 | inactive: -0.655% |
